Measurements: PubChem BioAssay AID686979 (National Center for Advancing Translational Sciences (NCATS), 2013)
Among all 420,000 compounds or so, about 50,000 (12%) were called active. Inconclusive results, whose numbers are uncertain, are shown with a selection of clear calls. Calls come from the whole dose curve; as a rule, active = well fitted inhibition curve with a large enough effect; inconclusive = small, poorly fitted or top-dose-only effect; inactive = flat fitted curve, though single readings scatter. No potency is given beside an inconclusive call; the fits are too rough.

Assay: qHTS for Inhibitors of human tyrosyl-DNA phosphodiesterase 1 (TDP1): qHTS in cells in presence of CPT; note: nearly all actives have a fitted effect of over 55% in size
Settings: chicken DT40 Tdp1-/-;hTDP1 cells + 20 nM CPT, ATP luminescence, 48 h; activity change, negative = growth inhibition: at 46.2 µM (top of the series) unless noted
Outline: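 Chicken DT40 Tdp1-/- cells stably complemented with human TDP1 were seeded at 400 cells/well in medium containing 20 nM camptothecin, exposed to pin-transferred compounds, and grown at 37 °C for at least 48 hr. Viability was read as ATP luminescence.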
% is set by controls: 0 for no effect and ±100 for the full control effect; potency is the fitted concentration of half-maximal effect; tags give direction and shape of the fitted curve.

| SMILES | activity change, negative = growth inhibition | Potency |
| --- | --- | --- |
| O=C1c2ccccc2C(c2nnnn2-c2ccc3c(c2)OCCO3)N1CCCN1CCOCC1 (configuration not stated) | inactive: 1.15% |  |
| COc1cc(NC(=O)c2nnn(CC(=O)Nc3cc(C)ccc3C)c2N)cc(OC)c1 | inactive: -0.0445% |  |
| COc1cccc(C(=O)NC2CC3CCC(C2)N3Cc2ccccc2)c1 (configuration not stated) | inactive: -7.82% |  |
| CCC12C(=Nc3c(Cl)cccc31)C[C@@H]1CCN3C(=O)CCC[C@H]2[C@H]13 (some centres not stated) |  | inconclusive [inhibitor, single point] |
| COC(=O)c1[nH]c2ccccc2c1NC(=O)C(C)N1CC(C)OC(C)C1 (configuration not stated) | inactive: 6.12% |  |
| CCCC(=O)N1CCC1(C)C(=O)Nc1ccc(OC)c(OC)c1 (configuration not stated) | inactive: -7.83% |  |
| Cc1nc2ccccc2n1CC(=O)c1ccccc1 |  | inconclusive [inhibitor, single point] |
| COC(=O)Cn1c(CN2CCN(c3ccccc3F)CC2)nc2c1c(=O)n(C)c(=O)n2C |  | active: 5.8 µM |
| CCCCn1c(Nc2ccc(OC)cc2)nc2ccccc21 |  | inconclusive [inhibitor, single point] |
| Cc1nn(-c2ccccc2)c(N2CCCC2)c1/C=N/Nc1ccc(S(=O)(=O)Nc2ccccc2)cc1[N+](=O)[O-] |  | active: 5.8 µM |
| COc1ccc(N(CC(=O)NC2CC3CCC2C3)S(=O)(=O)c2ccc(C)cc2)cc1Cl (configuration not stated) |  | inconclusive [inhibitor, single point] |
| CCOC(=O)c1c(NC(=O)CSc2nc3cccnc3n2C)sc(C(C)=O)c1C |  | active: 18.4 µM |
| CC(C)(C)NC(=O)C(c1ccnc2ccccc12)n1c(=O)c(-c2cc3ccccc3[nH]2)nc2ccccc21 (configuration not stated) |  | inconclusive [inhibitor, single point] |
| CN1C(=O)/C(=C\C=C2/CCCN2C)N(C)C1=S | inactive: -16.7% |  |
| O=C(NC1CCC(O)CC1)c1ccc(-c2ccc([N+](=O)[O-])cc2)o1 (configuration not stated) |  | active: 16.4 µM |
| CCOC(=O)c1c(NC(=O)C2c3ccccc3Oc3ccccc32)sc(C(=O)N(CC)CC)c1C |  | active: 18.4 µM |
| Cc1cccc(N=NC(=S)NNc2cccc(C)c2)c1 |  | inconclusive [inhibitor, single point] |
| CC(C)Cc1ccc(S(=O)(=O)NCC2CCCO2)cc1 (configuration not stated) |  | inconclusive [inhibitor, single point] |
| O=C(NCCCN1CCOCC1)c1cnn2c(-c3ccccc3)cc(-c3ccccc3)nc12 |  | active: 18.4 µM |
| CCOc1ccccc1C(=O)NC(C(=O)NCc1ccccc1OC)C(C)C (configuration not stated) |  | inconclusive [inhibitor, single point] |
| O=C(CNC(=O)c1ccncc1)N/N=C/c1ccc(O)cc1O |  | inconclusive [inhibitor, single point] |
| Cc1cccc(-n2ncc3c(Nc4ccc(F)cc4)ncnc32)c1 |  | inconclusive [inhibitor, single point] |
| Cc1ccc(NC(=O)CCN2CCN(C/C=C/c3ccccc3)CC2)cc1C |  | inconclusive [inhibitor, single point] |
| CCOC(=O)c1cc(C(=O)OCC)c(=O)[nH]c1C |  | inconclusive [inhibitor, single point] |

| SMILES | activity change, negative = growth inhibition | Potency |
| --- | --- | --- |
| O=C(CCc1nc(-c2ccccc2F)no1)NC1CCN(Cc2ccccc2)CC1 |  | inconclusive [inhibitor, single point] |
| CC(C)c1ccc(/C=C/C(=O)n2nnc3ccccc32)cc1 |  | active: 16.4 µM |
| CCOc1cc(C(=O)Nc2ccc3c(c2)n(C)c(=O)c(=O)n3C)cc(OCC)c1OCC |  | inconclusive [inhibitor, single point] |
| N=C1C(c2nc(-c3ccc(F)cc3)cs2)=C(O)CN1CCCN1CCOCC1 |  | inconclusive [inhibitor, single point] |
| Cc1onc(-c2ccccc2Cl)c1C(=O)NC(=S)Nc1ccc(C(C)(C)C)cc1 |  | inconclusive [inhibitor, single point] |
| CCN1CCN(CCCN(Cc2ccco2)C(=S)Nc2ccc(Cl)c(C)c2)CC1 | inactive: -15.5% |  |
| CC1(C)CC(=O)C2=C(C1)NC(Nc1nc3ccccc3o1)=NC21CCCCC1 |  | inconclusive [inhibitor, single point] |
| COc1ccccc1C(=O)N/N=C(\C)CC(=O)Nc1ccccn1 | inactive: 3.89% |  |
| CCOC(=O)C1=CN(Cc2ccco2)S(=O)(=O)N(C)C1c1cccc(OC)c1 (configuration not stated) |  | inconclusive [inhibitor, single point] |
| Cc1ccccc1OCC(O)Cn1c(Br)nc2c1c(=O)n(C)c(=O)n2C (configuration not stated) |  | inconclusive [inhibitor, single point] |
| CC(=O)Nc1c(C(=O)N2CCCCCC2)cnn1-c1ccccc1 | inactive: 20.7% |  |
| O=C(NCCc1csc2nc(-c3ccccc3F)nn12)C(=O)Nc1cc(F)ccc1F | inactive: 3.16% |  |
| CC(=O)Nc1ccc(S(=O)(=O)N(C)Cc2ccccc2)cc1 | inactive: -1.74% |  |
| CCNc1ccc(/C=C2\C=Cc3ccccc32)cc1 |  | inconclusive [inhibitor, single point] |
| COc1ccccc1CNCc1cccc(Oc2ccccc2)c1 |  | inconclusive [inhibitor, single point] |
| O=S(=O)(Nc1cc(Sc2cccc3cccnc23)c(O)c2ccccc12)c1ccc(F)cc1 |  | active: 0.58 µM |
| Cc1cc(NC(=O)c2ccccc2)ccc1NC(=O)Cc1ccccc1 | inactive: 2.07% |  |
| N#Cc1c(-c2ccccc2)nc(SCc2cccc(C(F)(F)F)c2)[nH]c1=O | inactive: -0.969% |  |
| CCN1CCC(O)(/C=C/c2ccc(C)cc2)C(C(=O)/C=C/c2ccc(C)cc2)C1 (configuration not stated) |  | active: 3.66 µM |
| CCCCCn1c(=O)c2ccccc2n2c(=S)[nH]nc12 | inactive: -17.1% |  |
| CCCC(=O)Nc1nc2c(s1)COc1ccccc1-2 |  | inconclusive [inhibitor, single point] |
| N#CC(C(=O)NCc1ccccc1)c1nc2ccccc2nc1N1CCCC1 (configuration not stated) |  | inconclusive [inhibitor, partial curve] |
| COc1ccc(NC(=O)CSc2nnc(-c3ccncc3)o2)c(OC)c1 |  | inconclusive [inhibitor, partial curve] |
